Experimental data reported in PubChem BioAssay AID651820 (National Center for Advancing Translational Sciences (NCATS), 2012).
Screen size: about 340,000 compounds; about 12,000 (3.5%) were called active. This list was built around the results that the source calls inconclusive (neither active nor inactive); the mix of calls is not that of the screen. Calls come from the whole dose curve; as a rule, active = well fitted inhibition curve with a large enough effect; inconclusive = small, poorly fitted or top-dose-only effect, or another doubt; inactive = no such curve, though single readings can be large or run the other way. Potencies of inconclusive entries are left out as doubtful fits.

experiment: qHTS Assay for Inhibitors of Hepatitis C Virus (HCV); settings: Huh7.5.1 HCVcc-Cre (HCVcc is cell-culture hepatitis C virus) infection, luciferase reporter, 44 h; series mostly up to 41.8 µM
Outline: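 1,000 cells/well; 4 h culture; + compound; + HCVcc-Cre (~0.5 moi); 44 h; luciferase substrate, RT 15 min; read 15 sec.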
Potency is the fitted concentration of half-maximal effect; tags give direction and shape of the fitted curve.

Structure (SMILES)	Potency
CC(=O)c1ccc(NC(=S)Nc2cccc(Cl)c2C)cc1	inactive
CC(C)N(Cc1nc(-c2ccccc2)no1)C(=O)c1ccc(Br)o1	inconclusive [inhibitor, full curve, poor fit]
Cc1c(OCC(=O)N(C)C)ccc2c3c(c(=O)oc12)CCCCC3	inconclusive [inhibitor, partial curve]
Cc1ccc(CCNC(=O)C23CN(Cc4ccccc4)CC2C(c2cccc([N+](=O)[O-])c2)=NO3)cc1 (stereo not given)	inconclusive [inhibitor, partial curve]
S=C(Nc1ccccc1)N1CCN(c2ccccn2)CC1	inactive
COc1ccc(NS(=O)(=O)c2ccc(N3CCOCC3)c(NC(=O)c3ccccc3Cl)c2)cc1	inconclusive [inhibitor, single point]
O=C(O)C1(P(=O)(c2ccc(Cl)cc2)c2ccc(Cl)cc2)CCCC1	inactive
COc1ccc(C(=O)NC(=S)NCCO)cc1Br	inactive
O=C(Nc1ccc(S(=O)(=O)NCc2cccnc2)cc1)c1ccccc1Cl	active: 8.91 µM
O=C(NCC1OCCc2ccccc21)c1ccc(NC(=O)c2cccc(Br)c2)cc1 (stereo not given)	inconclusive [inhibitor, partial curve]
CC1CCN(CCC(=O)Nc2ccc3c(c2)CCC3)CC1	inconclusive [inhibitor, full curve, poor fit]
CCN(CC)S(=O)(=O)c1cccc(NC(=O)C2SC(=Nc3ccc(C)cc3C)C(C(=O)NC(C)COC)=C2N)c1 (stereo not given)	inconclusive [inhibitor, single point]
CC(C)CN(C(=O)CCCSc1nc2ccccc2[nH]1)c1c(N)n(Cc2ccccc2)c(=O)[nH]c1=O	inconclusive [inhibitor, full curve, poor fit]
Cc1ccc2[nH]c(=O)c(CN(CCCN3CCOCC3)C(=O)NC3CCCCC3)cc2c1	inactive
COc1ccc(Cn2c(C)ccc2C)cc1	inactive
CCOc1ccc(CCNC(=O)c2cc(-c3ccccc3)c(N3CCOCC3)s2)cc1	inconclusive [inhibitor, single point]
CCOC(=O)c1cnc2ccc(Cl)cc2c1NCCN(C)C	inactive
C=CCn1c(C)cc(C(=O)CSc2nc3ccccc3[nH]2)c1C	active: 6.31 µM
O=C(NNC(=S)Nc1ccccc1C(F)(F)F)C1CC1	inactive
CC(C)(C)c1ccc(-c2nnc3sc(-c4ccccn4)nn23)cc1	inactive
O=C(CSc1nnc(COc2ccccc2Cl)o1)NC(=O)NCc1ccco1	inactive
COc1cc2cc(Br)cc(Br)c2nc1C	active: 11.2 µM
CC(C)C(=O)Nc1ccc(NC(=O)c2cccc3c(Br)cccc23)cc1	inactive
O=C(Nc1ccc(Br)cc1)c1cccc(OC(=S)N2CCOCC2)c1	active: 8.91 µM
N=c1c(C(=O)NCc2ccc(F)cc2)cc2c(=O)n3ccccc3nc2n1Cc1ccco1	active: 1 µM

Structure (SMILES)	Potency
Cc1ccccc1CN1C[C@@H]2C[C@@H](c3cnc(N4CCOCC4)s3)N3CCC[C@@]23C1=O	inconclusive [inhibitor, partial curve]
O=C(CC1CC2CCC1C2)NC1CCCCCCC1 (stereo not given)	inactive
Cc1oc(-c2ccccc2F)nc1CSCC(=O)NC1CCCC1	inconclusive [inhibitor, full curve]
CN1C(=O)NC(=O)/C(=C\c2ccc([N+](=O)[O-])o2)C1=O	inactive
FC(F)Sc1nnc(-c2cccs2)n1-c1ccccc1	inconclusive [inhibitor, full curve, poor fit]
CCCCNc1c(-c2ccc(-c3ccc(C(C)=O)cc3)c(OC)c2)nc2cnccn12	inconclusive [inhibitor, single point]
Clc1ccc(Cl)c(OCCCCN2CCNCC2)c1	inconclusive [inhibitor, partial curve]
O=CN(Cc1nc2ccccc2[nH]1)c1ccc(C(=O)O)cc1	inactive
CCc1nn(CCCC(=O)N2CCN(c3ccc(OC)cc3)CC2)c(=O)c2cc3occc3n12	inconclusive [inhibitor, partial curve]
CC(C)Cc1nnc(NC(=O)CCS(=O)(=O)c2ccc(Cl)cc2)s1	inconclusive [inhibitor, single point]
Cc1noc(C)c1S(=O)(=O)Nc1ccc2c(c1)CC(=O)N([C@H](C)CO)C[C@H](C)[C@@H](CN(C)CC1CC1)O2	inconclusive [inhibitor, single point]
O=C(CSc1ncccc1C(=O)O)c1ccc2ccccc2c1	inactive
O=C(CSc1nc2ccccc2c(=O)n1CCCN1CCOCC1)NC12CC3CC(CC(C3)C1)C2	inactive
O=[N+]([O-])c1ccc(N2CCN(Cc3ccc(Br)o3)CC2)cc1	inactive
Cn1cnc(S(=O)(=O)Nc2ccccc2N2CCOCC2)c1	inactive
CCc1ccc(OCC(=O)NCc2ccco2)c(Br)c1	inconclusive [inhibitor, single point]
O=C(Nc1ccccc1)N1CCN(Cc2ccc(Cl)cc2)CC1	inactive
CCC(C)Nc1nc(-c2ccc3c(c2)NC(=O)CO3)cs1 (stereo not given)	inconclusive [inhibitor, partial curve]
CNc1ccc(/C=C(\C#N)C(=O)Nc2ccccn2)cc1[N+](=O)[O-]	inactive
COc1cccc(CN(CC(=O)NCc2ccccc2)C(=O)c2csnn2)c1	inactive
C/C(=N\NC(=O)c1ccoc1C)c1cccnc1	inactive
CCN(CC)c1ccc(/C=N/NC(=O)CNC(=O)c2ccc3c(c2)OCCO3)cc1	inconclusive [inhibitor, single point]
O=C(Cn1nc(C(F)F)cc1C(F)F)N/N=C/c1ccc2c(c1)OCO2	inactive
CCCCCSc1cc(OC)c(CCN)cc1OC	inconclusive [inhibitor, single point]
CCOc1cc2[nH]c(=S)n(Cc3ccc(C)o3)c(=O)c2cc1OCC	inconclusive [inhibitor, full curve]
